Laboratory results from a collection of fitness landscapes (doi:10.1016/j.celrep.2020.107928).
In all, about 81,000 sequences were measured (“one-hybrid fitness for binding parS DNA”: median about -0.17, highest 2% from about 0.51 on). Some of the results follow.

B1: Caulobacter ParB omega fusion; a variant is named by its letters at X, in order, B8GW30 (parent)
chain: MESVVVGEPGMSEGRRGLGRGLSALLGEVDAAPAQAPGEQLGGSREAPIEILQRNPDQPRRTFREEDLEDLSNSIREKGVLQPILVRPSPDTAGEYQIVAGERAWRAAQRAGLKTVPIMVRELDDLAVLEIGIIENVQRADLNVLEEALSYKVLMEKFERTQENIAQTIGKSXSHVANXMRLLXLPDEVQSYLVSGELTAXHARAIAAAADPVALAKQIIEGGLSVRETEALARKAPNLSAGKSKGGRPPRVKDTDTQALESDLSSVLGLDVSIDHRGSTGTLTITYATLEQLDDLCNRLTRGI

Variants of: B1
Assay: one-hybrid fitness for binding parS DNA (scaled: cognate 1, non-cognate 0); higher = stronger binding
Conditions: with parS DNA site
Outline: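 Selection: bacterial one-hybrid in E. coli USO, HIS3 reporter with the site 19 bp from the promoter, 48 hours at 37°C on M9-minus-histidine plus 0.1 mM IPTG and 5 mM 3-AT. Libraries were Caulobacter ParB with four randomised specificity codons, sequenced on Illumina before and after selection. Fitness is the rescaled log change in variant-to-wild-type read ratio, anchored to the cognate and non-cognate sites.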

one-hybrid fitness for binding parS DNA, 0.937:
RMGT

one-hybrid fitness for binding parS DNA, 0.925:
RKHG

one-hybrid fitness for binding parS DNA, 0.22:
MQSM

one-hybrid fitness for binding parS DNA, ≤ 0.2:
ARER
ILPL
FWRR
TSCK
MSED
RKKE
GTRT
VHGI
DSSG
QRQC
CVHI
YYKT
FPRS
NDKL
MSTL
HHKP
VGPR
RKHV
SIHL
QTAA
TNLP
VSGS
QAYV
GLFR
YCQT
TRMD
PRIF
RIKQ
LYVQ
IDYS
WGHV
AISH
LMSQ
VEGS
YNLW
ESQM
QYLG
AHPG
PKCK
NTIY
AWKR
GYPS
KRMI
HDAR
KYSA
TCPY
SLSI
DVDS
TQSC
TPKP
VFPC
QNKL
TSKD
YRHG
QAWE
SYVT
VLSV
CNAS
KSQS
PFWV
EFPM
SGPG
FVYW
HGNI
APTA
SMPR
WVWF
RFYV
FIHV
DFGA
DPVF
LSVN
KEWT
KKQR
VLQL
IPAY
TRKY
QCKV
SLLQ
TCHN
CIEG
MVLG
PSWE
ETYG
TINS
IDSV
MHWG
SHRR
SHDC
SYEC
LNAY
HYLD
DWSS
KMLF
TTKP
HQAP
KVTN
GAQG
NSCS
AIVR
DTTL
DNWS
IRRW
IRYA
ETLR
HFGY
QDNH
GTLG
CHCI
LTVG
PLHT
MSNG
TQLC
CQKF
PVCD
VMKA
HREG
ATNG
PFRR
FDPS
FRAW
PHER
QFNK
TTDP
FFTE
CAVK
VWAL
AAYR
NVGM
DRAG
LVHI
MEVG
TQHM
AVPP
QHVY
CWMS
QTRL
TMLQ
KDPN
IYYS
AHSY
NRPI
HDAT
SYHF
RHPF
RRVI
DCLG
GPKE
YLGT
GPSR
LQAV
NHFP
LAYS
HIIF
KSPV
WHRV
VFER
PPSN
PWQT
GSVC
FTSA
SRVR
SVSK
PGAV
LRIY
MEGC
ELTS
HMSR
KAWL
QEYS
FKVC
ALSI
ARSP
NSPD
APCL
RYDW
KLWT
TPNQ
SDSM
ATLW
WVWG
NTKC
PIGF
QNYM
QMLT
DPRM
QKVQ
PVRI

one-hybrid fitness for binding parS DNA, 0.457:
RLCN

one-hybrid fitness for binding parS DNA, 0.613:
RIYA

one-hybrid fitness for binding parS DNA, 0.517:
RTRM

one-hybrid fitness for binding parS DNA, 0.987:
RQQS
